In a compilation of properties of binary mixtures (doi:10.1007/s10765-020-02720-w):
Some of these densities may be calculated back from excess volumes.

Test: xn = mol fraction of the nth substance listed
Details: 100 kPa

C[n+]1ccn(CCC(F)(F)C(F)(F)F)c1.F[P-](F)(F)(F)(F)F + CCCC[n+]1ccn(C)c1.F[P-](F)(F)(F)(F)F
mass density [kg/m3]
Details | x2 = 0 | x2 = 0.972
293.15 K | – | 1379.3
298.15 K | – | 1375.1
303.15 K | – | 1370.9
308.15 K | – | 1366.7
318.15 K | – | 1358.3
323.15 K | – | 1354.1
328.15 K | – | 1350
333.15 K | – | 1345.8
343.15 K | 1595.4 | 1337.6
345.65 K | 1592.9 | –
348.15 K | 1590.4 | –
350.65 K | 1587.9 | –
353.15 K | 1585.6 | 1329.5
355.65 K | 1583.1 | –
358.15 K | 1580.8 | –
360.65 K | 1578.5 | –
363.15 K | 1576.2 | 1321.4

CCCC[n+]1ccn(C)c1.F[P-](F)(F)(F)(F)F + C[n+]1ccn(CCC(F)(F)C(F)(F)F)c1.F[P-](F)(F)(F)(F)F
x1 = 1
Details | mass density [kg/m3]
293.15 K | 1371.6
298.15 K | 1367.4
303.15 K | 1363.2
308.15 K | 1359
313.15 K | 1354.8
318.15 K | 1350.7
323.15 K | 1346.5
343.15 K | 1330.2
353.15 K | 1322.1
358.15 K | 1318.1
363.15 K | 1314.1
